In publication PMC6642173, “Acetylation regulates ribonucleotide reductase activity and cancer cell growth” (Nature Communications, 2019) one finds binding data, which are given here for eight molecules.

Chains of the proteins cited; added tags and fusions are not shown. Residues count along the entry.
UniProt Q96EB6: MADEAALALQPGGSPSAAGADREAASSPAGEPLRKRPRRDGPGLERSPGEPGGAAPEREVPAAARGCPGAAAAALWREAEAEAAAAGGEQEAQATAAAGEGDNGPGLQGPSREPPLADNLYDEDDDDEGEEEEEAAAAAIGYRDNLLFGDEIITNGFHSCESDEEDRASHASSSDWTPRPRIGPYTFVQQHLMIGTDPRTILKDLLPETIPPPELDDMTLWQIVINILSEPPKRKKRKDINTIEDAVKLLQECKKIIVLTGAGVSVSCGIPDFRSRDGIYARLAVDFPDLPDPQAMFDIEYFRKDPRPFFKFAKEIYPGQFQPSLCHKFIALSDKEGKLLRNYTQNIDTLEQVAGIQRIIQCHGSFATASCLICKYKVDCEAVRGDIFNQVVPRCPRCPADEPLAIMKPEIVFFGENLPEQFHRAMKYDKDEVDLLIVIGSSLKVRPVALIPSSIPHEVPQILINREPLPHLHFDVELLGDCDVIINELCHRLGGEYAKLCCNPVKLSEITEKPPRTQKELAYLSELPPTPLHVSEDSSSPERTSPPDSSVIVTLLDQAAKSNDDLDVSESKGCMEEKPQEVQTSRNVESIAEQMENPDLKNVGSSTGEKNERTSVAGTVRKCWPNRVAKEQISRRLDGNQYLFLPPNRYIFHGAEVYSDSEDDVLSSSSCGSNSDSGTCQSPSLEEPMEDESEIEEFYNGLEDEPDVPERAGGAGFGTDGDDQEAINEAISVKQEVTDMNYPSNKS
UniProt Q9NXA8, residues 37-310: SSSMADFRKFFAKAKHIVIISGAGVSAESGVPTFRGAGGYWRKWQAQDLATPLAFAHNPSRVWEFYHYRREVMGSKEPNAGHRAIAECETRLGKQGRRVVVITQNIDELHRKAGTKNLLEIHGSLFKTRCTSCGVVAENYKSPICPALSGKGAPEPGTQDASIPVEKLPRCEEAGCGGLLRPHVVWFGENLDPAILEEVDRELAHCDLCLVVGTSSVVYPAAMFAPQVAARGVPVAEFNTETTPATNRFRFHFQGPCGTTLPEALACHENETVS
UniProt Q8N6T7: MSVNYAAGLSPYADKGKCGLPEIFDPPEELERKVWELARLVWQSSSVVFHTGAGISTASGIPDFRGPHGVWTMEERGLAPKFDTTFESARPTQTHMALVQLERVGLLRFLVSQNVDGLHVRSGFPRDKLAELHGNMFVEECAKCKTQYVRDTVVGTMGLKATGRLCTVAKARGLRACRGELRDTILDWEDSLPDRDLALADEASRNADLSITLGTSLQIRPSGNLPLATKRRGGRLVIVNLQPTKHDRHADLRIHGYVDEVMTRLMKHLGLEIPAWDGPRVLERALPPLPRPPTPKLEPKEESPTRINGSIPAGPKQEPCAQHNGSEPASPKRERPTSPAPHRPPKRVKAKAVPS
UniProt Q13535: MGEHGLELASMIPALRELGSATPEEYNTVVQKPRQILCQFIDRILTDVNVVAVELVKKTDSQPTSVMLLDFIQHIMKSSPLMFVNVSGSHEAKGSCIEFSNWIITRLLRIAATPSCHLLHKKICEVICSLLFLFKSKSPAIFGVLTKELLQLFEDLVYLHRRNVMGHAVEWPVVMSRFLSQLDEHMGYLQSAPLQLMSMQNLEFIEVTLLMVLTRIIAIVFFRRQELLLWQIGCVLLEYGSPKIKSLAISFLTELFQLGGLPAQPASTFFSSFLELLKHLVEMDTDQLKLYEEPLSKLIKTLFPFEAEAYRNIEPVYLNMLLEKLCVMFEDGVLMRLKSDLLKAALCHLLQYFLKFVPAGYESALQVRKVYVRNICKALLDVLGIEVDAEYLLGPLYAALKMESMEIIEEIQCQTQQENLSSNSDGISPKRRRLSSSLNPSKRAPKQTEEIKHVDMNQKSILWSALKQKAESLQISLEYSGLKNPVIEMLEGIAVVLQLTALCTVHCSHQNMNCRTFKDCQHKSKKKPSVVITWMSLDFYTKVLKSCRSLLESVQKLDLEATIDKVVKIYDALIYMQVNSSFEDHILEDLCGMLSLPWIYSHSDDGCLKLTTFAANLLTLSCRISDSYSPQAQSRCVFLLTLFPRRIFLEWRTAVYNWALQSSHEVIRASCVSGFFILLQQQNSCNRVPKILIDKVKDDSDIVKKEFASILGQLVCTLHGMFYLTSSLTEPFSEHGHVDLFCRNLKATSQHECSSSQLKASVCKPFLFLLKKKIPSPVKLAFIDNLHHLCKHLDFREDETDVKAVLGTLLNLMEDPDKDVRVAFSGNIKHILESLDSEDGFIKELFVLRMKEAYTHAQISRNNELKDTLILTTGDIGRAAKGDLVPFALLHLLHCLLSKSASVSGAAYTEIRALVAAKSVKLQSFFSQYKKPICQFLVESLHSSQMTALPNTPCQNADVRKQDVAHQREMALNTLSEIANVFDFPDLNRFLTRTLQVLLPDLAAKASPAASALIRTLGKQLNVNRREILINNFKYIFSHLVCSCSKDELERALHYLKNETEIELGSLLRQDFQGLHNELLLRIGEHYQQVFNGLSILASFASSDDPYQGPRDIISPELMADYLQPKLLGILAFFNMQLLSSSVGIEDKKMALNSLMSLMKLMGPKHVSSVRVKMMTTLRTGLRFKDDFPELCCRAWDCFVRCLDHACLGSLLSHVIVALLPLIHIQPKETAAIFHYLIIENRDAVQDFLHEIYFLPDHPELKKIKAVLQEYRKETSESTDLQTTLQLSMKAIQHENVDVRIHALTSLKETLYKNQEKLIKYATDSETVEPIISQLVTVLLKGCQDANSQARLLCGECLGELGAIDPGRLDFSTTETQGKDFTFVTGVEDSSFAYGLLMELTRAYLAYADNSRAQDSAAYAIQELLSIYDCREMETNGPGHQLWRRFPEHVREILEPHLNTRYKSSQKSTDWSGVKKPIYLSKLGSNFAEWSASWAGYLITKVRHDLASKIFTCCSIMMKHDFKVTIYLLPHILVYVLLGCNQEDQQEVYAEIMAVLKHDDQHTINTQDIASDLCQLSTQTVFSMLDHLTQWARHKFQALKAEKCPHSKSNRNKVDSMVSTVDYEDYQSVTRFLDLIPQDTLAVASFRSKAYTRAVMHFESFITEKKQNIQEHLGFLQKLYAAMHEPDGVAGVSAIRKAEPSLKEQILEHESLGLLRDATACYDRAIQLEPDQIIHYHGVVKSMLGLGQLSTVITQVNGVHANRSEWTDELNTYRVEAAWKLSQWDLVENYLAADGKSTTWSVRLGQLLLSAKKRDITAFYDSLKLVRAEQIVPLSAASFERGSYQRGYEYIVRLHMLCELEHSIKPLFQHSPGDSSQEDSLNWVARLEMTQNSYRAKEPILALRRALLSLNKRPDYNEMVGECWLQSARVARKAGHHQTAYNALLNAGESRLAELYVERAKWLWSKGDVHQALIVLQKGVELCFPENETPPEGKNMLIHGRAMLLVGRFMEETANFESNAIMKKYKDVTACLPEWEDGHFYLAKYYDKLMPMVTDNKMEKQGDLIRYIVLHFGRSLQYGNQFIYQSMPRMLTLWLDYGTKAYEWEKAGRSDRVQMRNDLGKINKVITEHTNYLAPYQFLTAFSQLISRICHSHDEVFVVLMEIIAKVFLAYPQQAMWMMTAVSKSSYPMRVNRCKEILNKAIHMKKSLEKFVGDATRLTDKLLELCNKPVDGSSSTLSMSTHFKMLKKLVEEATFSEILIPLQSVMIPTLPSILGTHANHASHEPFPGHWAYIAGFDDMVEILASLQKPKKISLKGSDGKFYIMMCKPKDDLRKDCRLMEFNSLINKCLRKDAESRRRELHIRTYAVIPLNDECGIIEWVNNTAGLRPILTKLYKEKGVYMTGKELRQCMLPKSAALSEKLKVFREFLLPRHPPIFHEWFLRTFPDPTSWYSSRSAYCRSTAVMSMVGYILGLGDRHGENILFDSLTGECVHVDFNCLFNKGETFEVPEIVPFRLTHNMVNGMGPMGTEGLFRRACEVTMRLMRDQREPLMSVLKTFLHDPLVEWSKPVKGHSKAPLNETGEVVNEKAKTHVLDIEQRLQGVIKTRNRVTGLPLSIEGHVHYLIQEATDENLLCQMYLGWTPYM
UniProt O95251: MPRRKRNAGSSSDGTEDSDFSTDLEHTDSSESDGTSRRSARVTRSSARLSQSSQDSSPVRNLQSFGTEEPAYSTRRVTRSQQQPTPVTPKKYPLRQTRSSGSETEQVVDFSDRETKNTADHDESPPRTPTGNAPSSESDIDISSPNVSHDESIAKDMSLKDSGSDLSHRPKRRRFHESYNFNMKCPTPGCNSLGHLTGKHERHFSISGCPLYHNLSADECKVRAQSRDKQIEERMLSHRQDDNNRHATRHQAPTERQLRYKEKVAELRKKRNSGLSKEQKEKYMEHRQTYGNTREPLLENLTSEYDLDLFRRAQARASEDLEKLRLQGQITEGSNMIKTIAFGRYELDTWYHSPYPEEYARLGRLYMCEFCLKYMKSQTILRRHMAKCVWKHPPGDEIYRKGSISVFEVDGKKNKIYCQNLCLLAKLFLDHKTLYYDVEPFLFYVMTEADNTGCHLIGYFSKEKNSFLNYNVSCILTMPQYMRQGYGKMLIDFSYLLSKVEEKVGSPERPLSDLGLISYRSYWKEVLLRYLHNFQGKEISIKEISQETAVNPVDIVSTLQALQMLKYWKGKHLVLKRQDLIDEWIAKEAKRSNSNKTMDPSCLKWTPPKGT

For test [1], the target named is T1, Endogenous RRM2 (human (endogenous in H1299)) (UniProt P31350).
T1 sequence: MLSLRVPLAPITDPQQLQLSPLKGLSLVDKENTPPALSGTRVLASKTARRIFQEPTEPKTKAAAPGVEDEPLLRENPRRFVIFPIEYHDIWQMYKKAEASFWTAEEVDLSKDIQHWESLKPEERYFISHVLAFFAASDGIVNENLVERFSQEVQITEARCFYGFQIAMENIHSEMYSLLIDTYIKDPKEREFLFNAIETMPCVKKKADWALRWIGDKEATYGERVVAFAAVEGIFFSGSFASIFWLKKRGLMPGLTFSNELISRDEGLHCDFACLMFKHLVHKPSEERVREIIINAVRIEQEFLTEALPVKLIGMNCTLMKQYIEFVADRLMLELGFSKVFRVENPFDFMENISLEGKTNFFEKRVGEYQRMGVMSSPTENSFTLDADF
The test can be described thus: co-IP; endogenous proteins in H1299 cells; IP with RRM2 antibody, western blot of the associated protein. For orientation: Immunoblotting shows a protein as a band on a membrane.

The target of test [2] is T2, Flag-tagged WT RRM2 (human) (UniProt P31350).
T2 sequence: T1 sequence
As to the kind of experiment: co-IP; H1299 cells co-transfected with Flag-RRM2 and HA-KAT7; precipitating antibody not told.

The target of test [3] is T3, Flag-tagged RRM2 K283Q acetyl-mimetic mutant (human) (UniProt P31350).
T3 sequence: T1 sequence with K283Q
The test can be described thus: co-IP; H1299 cells co-transfected with HA-RRM2 and a Flag-tagged partner (Flag-RRM2 variants or Flag-Sirt1-7); IP with Flag antibody, western blot with anti-HA and anti-Flag.

Test [4] concerns the target T4, Flag-tagged RRM2 K30Q acetyl-mimetic mutant (human) (UniProt P31350).
T4 sequence: T1 sequence with K30Q
The test is described as above.

The target of test [5] is T5, Flag-tagged RRM2 K61Q acetyl-mimetic mutant (human) (UniProt P31350).
T5 sequence: T1 sequence with K61Q
The test is described as above.

For test [6], the target named is Flag-tagged Sirt1 (UniProt Q96EB6). Described as above.
In test [7] the target is T6, Flag-tagged Sirt2 WT (UniProt Q8IXJ6).
T6 sequence: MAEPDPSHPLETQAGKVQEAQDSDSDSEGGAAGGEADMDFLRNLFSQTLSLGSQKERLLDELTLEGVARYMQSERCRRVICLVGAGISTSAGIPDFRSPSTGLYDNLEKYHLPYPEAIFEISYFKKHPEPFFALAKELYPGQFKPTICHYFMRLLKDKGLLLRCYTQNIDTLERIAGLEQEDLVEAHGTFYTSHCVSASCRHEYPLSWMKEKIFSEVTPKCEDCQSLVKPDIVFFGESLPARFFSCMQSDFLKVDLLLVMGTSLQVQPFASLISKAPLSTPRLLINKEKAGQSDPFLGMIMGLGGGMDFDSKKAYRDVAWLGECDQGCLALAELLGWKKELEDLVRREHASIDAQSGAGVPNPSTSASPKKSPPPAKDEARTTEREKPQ
Described as above.

Test [8] addresses T7, Flag-tagged Sirt4 (UniProt Q9Y6E7).
T7 sequence: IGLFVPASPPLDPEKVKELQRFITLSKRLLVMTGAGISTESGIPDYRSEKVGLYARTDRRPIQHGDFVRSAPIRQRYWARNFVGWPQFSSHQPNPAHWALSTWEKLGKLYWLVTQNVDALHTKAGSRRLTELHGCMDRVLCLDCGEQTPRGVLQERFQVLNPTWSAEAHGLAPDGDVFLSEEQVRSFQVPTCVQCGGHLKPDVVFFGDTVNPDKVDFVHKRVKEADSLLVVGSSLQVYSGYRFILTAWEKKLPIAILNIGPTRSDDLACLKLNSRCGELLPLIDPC
The description is as above.

Test [9] concerns the target Flag-tagged Sirt5 (UniProt Q9NXA8). The test is described as above.
In test [10] the target is Flag-tagged Sirt6 (UniProt Q8N6T7). The test is described as above.
Test [11] deals with T2, Flag-tagged WT RRM2 (human). The description is as above.
Test [12] deals with T6, Flag-tagged Sirt2 WT. The test can be described thus: co-IP; H1299 cells expressing exogenous Flag-Sirt2, treated with IR or CPT; IP with Flag antibody, western blot with RRM2 antibody.
Test [13] has as its target T6, Flag-tagged Sirt2 WT. The test can be described thus: co-IP; H1299 cells co-transfected with Flag-Sirt2 and HA-tagged WT, S150A or S150E RRM2; analysis of HA-RRM2/Flag-Sirt2 binding, precipitating antibody not told.
The target in test [14] is T8, Flag-tagged Sirt7, Q9NRC8.
T8 chain: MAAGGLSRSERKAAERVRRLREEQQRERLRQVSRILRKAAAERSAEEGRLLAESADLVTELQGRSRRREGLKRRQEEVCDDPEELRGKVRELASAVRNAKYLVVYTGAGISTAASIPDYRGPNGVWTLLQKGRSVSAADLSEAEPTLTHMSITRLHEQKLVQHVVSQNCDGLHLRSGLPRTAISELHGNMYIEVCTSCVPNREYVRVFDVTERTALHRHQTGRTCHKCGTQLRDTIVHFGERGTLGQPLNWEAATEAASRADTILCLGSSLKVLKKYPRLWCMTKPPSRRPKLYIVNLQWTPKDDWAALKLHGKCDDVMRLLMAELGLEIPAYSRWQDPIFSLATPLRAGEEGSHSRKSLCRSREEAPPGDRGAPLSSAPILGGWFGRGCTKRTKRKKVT
The test can be described thus: co-IP; H1299 cells co-transfected with HA-RRM2 and a Flag-tagged partner (Flag-RRM2 variants or Flag-Sirt1-7); IP with Flag antibody, western blot with anti-HA and anti-Flag. The settings on record: remark: other sources report otherwise.

Test [15] addresses T1, Endogenous RRM2 (human (endogenous in H1299)). As to the kind of experiment: co-IP; endogenous proteins in H1299 cells; IP with RRM2 antibody, western blot of the associated protein. The source holds these as a separate data set.

Where a chain is given by its changes, count along the chain named. Names and notes keep the numbering of the source. Read-outs that look alike come from different tables or passages of the source. These are yes or no findings as the source states them, for the method shown. Binding seen in cells or lysates may run through a third protein. Some binding calls cover weakened binding; strength is not graded here. For some of these results: Tags and fused reporters may be left off the sequences shown.

Take “Endogenous ATR (from UniProt Q13535 1-2644) (enzyme)”: the binding result in test [1] is listed as “binds”.

Regarding “HA-KAT7 (from UniProt O95251 1-611) (enzyme)”, the binding result in test [2] is given as “binds”.

Regarding “Endogenous KAT7 (from UniProt O95251 1-611) (enzyme)”, the binding result in test [1] is on record as “binds”.

B1: HA-tagged WT RRM2 (protein, UniProt P31350 1-389)
chain: T1 sequence
B1: the binding entry in test [3] is “binds”; in test [4], “binds”; in test [5], “binds”; in test [6] it was “no binding”; in test [7], “binds”; in [8], “no binding”. The binding entry in test [9] is reported as “no binding”; in [10], “no binding”; in test [11] it was “binds”.

B2: Endogenous RRM2 (protein, UniProt P31350 1-389)
chain: T1 sequence
As to B2, the binding entry in [12] is recorded as “binds”.

B3: HA-tagged RRM2 S150E phosphomimetic mutant (protein, UniProt P31350 1-389)
chain: T1 sequence with S150E
B3: the binding result in test [13] is given as “binds”.

B4: HA-tagged WT RRM2, P31350 1-389 (protein)
chain: T1 sequence
B4: the binding result in test [14] is “no binding”.

B5: Endogenous Sirt2 (enzyme, UniProt Q8IXJ6 1-389)
chain: T6 sequence
On to B5, for which the binding entry in [15] is “binds”.
